B1: antibody-drug conjugate (3): M30-H1-L4P antibody conjugated with the compound of Process 5 of Example 2; average 3.4 drugs per antibody (conjugate)
heavy: QVQLVQSGAEVKKPGSSVKVSCKASGYTFTNYVMHWVRQAPGQGLEWMGYINPYNDDVKYNEKFKGRVTITADESTSTAYMELSSLRSEDTAVYYCARWGYYGSPLYYFDYWGQGTLVTVSSASTKGPSVFPLAPSSKSTSGGTAALGCLVKDYFPEPVTVSWNSGALTSGVHTFPAVLQSSGLYSLSSVVTVPSSSLGTQTYICNVNHKPSNTKVDKRV[omitted - human IgG1 Fc]
light: EIVLTQSPATLSLSPGERATLSCRASSRLIYMHWYQQKPGQAPRPLIYATSNLASGIPARFSGSGSGTDFTLTISSLEPEDFAVYYCQQWNSNPPTFGQGTKVEIKRTVAAPSVFIFPPSDEQLKSGTASVVCLLNNFYPREAKVQWKVDNALQSGNSQESVTEQDSKDSTYSLSSTLTLSKADYEKHKVYACEVTHQGLSSPVTKSFNRGEC
B2: antibody-drug conjugate (20): M30-H1-L4P antibody conjugated with the compound of Process 4 of Example 20; average 3.8 drugs per antibody (conjugate)
heavy: B1 heavy
light: B1 light
B3: antibody-drug conjugate (30): M30-H1-L4P antibody conjugated with the compound of Process 4 of Example 32 (KGGFG-(NH-DX)); average 3.2 drugs per antibody (conjugate)
heavy: B1 heavy
light: B1 light

System: human melanoma line A375 cells transplanted in mice
Assay: Antitumor test (4)
Format: in vivo, mouse
Conditions: A375 xenograft in nude mice, 3 and 10 mg/kg intravenous; for effect on tumor volume / tumor growth inhibitory effect: Day 14 (qd×1), FIG. 20; for notable signs such as weight loss in treated mice: qd×1
Description: Mouse: 5- to 6-week-old female BALB/c nude mice (Charles River Laboratories Japan, Inc.) were acclimatized for 4 to 7 days under SPF conditions before use in the experiment. The mice were fed with sterilized solid feed (FR-2, Funabashi Farms Co., Ltd) and given sterilized tap water (prepared by the addition of 5 to 15 ppm sodium hypochlorite solution).
Assay and calculation expression: In all studies, the major axis and minor axis of tumor were measured twice a week by using an electronic digital caliper (CD-15C, Mitutoyo Corp.), and the tumor volume (mm^3) was calculated. The calculation expression is as shown below. Tumor volume (mm^3)=½×Major axis (mm)×[Minor axis (mm)]^2
Human melanoma line A375 cells were purchased from ATCC (American Type Culture Collection). 8×10^6 cells suspended in physiological saline were subcutaneously transplanted to the right abdomen of each female nude mouse (Day 0), and the mice were randomly grouped at Day 14. The antibody-drug conjugates (3), (20), and (30) were each intravenously administered at each dose (3 and 10 mg/kg) to the tail of each mouse at Day 14 in a schedule of qd×1.
In the drawing, the line with open rhombuses depicts the results about untreated tumor, the dotted line with filled squares depicts the effect of the antibody-drug conjugate (3) administered at 3 mg/kg, the solid line with filled squares depicts the effect of the antibody-drug conjugate (3) administered at 10 mg/kg, the dotted line with filled triangles depicts the effect of the antibody-drug conjugate (20) administered at 3 mg/kg, the solid line with filled triangles depicts the effect of the antibody-drug conjugate (20) administered at 10 mg/kg, the dotted line with filled circles depicts the effect of the antibody-drug conjugate (30) administered at 3 mg/kg, and the solid line with filled circles depicts the effect of the antibody-drug conjugate (30) administered at 10 mg/kg.

| Molecule | effect on tumor volume | tumor growth inhibitory effect | notable signs such as weight loss in treated mice |
| --- | --- | --- | --- |
| B1 | remarkably decreased the tumor volume | tumor growth inhibitory effect in a dose-dependent manner | free from notable signs such as weight loss |
| B2 | remarkably decreased the tumor volume | tumor growth inhibitory effect in a dose-dependent manner | free from notable signs such as weight loss |
| B3 | remarkably decreased the tumor volume | tumor growth inhibitory effect in a dose-dependent manner | free from notable signs such as weight loss |
